Measured values from article PMC4336329 (PLoS ONE, 2015).
Hit rate of the full screen: of about 310,000 compounds, about 14,000 (4.5%) showed an effect of 50% or more. The effect is printed as a negative number. The list shows a part of the results.

These compounds were tested against human ether-à-go-go-related gene (hERG) potassium channel (human, UniProt Q12809) (assay: primary screen, population patch clamp on CHO cells stably expressing hERG).
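Also: peak tail current of the secondary pulse compared with the same well before compound.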

Chain of human ether-à-go-go-related gene (hERG) potassium channel (Q12809 whole entry, looked up): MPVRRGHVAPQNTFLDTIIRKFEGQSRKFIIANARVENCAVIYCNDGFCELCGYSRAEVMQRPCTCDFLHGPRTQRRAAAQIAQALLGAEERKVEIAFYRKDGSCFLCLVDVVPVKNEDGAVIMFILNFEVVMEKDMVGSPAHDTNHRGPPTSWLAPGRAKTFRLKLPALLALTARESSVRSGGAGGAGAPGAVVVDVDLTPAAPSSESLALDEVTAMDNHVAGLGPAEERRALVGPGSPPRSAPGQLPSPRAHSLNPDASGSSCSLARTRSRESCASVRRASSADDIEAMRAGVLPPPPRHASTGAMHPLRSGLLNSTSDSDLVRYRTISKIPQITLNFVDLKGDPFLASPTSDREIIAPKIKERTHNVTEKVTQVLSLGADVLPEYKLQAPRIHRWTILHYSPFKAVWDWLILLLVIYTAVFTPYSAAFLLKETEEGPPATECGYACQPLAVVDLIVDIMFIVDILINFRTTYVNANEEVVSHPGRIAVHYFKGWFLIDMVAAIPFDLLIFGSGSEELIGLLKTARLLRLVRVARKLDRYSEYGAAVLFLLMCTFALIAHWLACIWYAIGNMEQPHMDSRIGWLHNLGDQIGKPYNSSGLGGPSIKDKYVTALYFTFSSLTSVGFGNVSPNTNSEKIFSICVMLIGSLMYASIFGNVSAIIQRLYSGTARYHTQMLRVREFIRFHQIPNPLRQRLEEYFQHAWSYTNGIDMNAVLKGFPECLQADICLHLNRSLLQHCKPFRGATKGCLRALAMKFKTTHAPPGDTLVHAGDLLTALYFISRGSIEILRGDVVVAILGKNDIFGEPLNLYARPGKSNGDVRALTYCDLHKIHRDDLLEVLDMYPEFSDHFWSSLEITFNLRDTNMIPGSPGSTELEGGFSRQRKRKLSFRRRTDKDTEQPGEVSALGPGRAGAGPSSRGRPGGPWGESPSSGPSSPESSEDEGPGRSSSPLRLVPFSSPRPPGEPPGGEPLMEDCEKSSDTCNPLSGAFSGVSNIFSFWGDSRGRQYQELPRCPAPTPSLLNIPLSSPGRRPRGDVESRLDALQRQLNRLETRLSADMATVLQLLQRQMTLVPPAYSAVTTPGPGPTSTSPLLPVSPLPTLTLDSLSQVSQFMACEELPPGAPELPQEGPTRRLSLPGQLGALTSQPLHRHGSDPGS

Compared with `COCCCN=CC1=C(O)CC(c2ccccc2)CC1=O` (centres unmarked), `COCCCN1C(=O)C(O)=C(C(=O)c2ccc(C)o2)C1c1cccc(Br)c1` (centres unmarked) is lower in “hERG current change (%, negative = inhibition) at 10uM” value: 17.9% for the first, 8.25% for the second.

Going from `Cc1ccccc1CNC(=O)Nc1cccs1` to `Cc1ccccc1CC(=O)N1CCCc2ccccc21`, the “hERG current change (%, negative = inhibition) at 10uM” value rises from 3.67% to 9.93%.

Going from `CC(=O)c1cc(F)c(N2CCCC2)cc1C` to `O=C(c1ccc(F)cc1Cl)N1CCC2(CC1)OCCO2`, the “hERG current change (%, negative = inhibition) at 10uM” value rises from 5.63% to 19.7%.

First: O=S(=O)(Nc1ncnc2sc3c(c12)CCC3)c1ccc2ccccc2c1
Second: O=C(O)CSc1nc2sc3c(c2c(=O)n1Cc1ccccc1)CCCCC3
The “hERG current change (%, negative = inhibition) at 10uM” value of the first is lower: 0.923% for the first, 26.5% for the second.

Compared with `CC(=O)c1c(C)nn(C(=O)c2cccs2)c1C`, `Cc1ccnc(NS(=O)(=O)c2cccs2)c1` is higher in “hERG current change (%, negative = inhibition) at 10uM” value: 10% for the first, 11.1% for the second.

Compared with `COCC1CCCCN1C(=O)c1ccc(OC)c(OC2CCN(C(C)C)CC2)c1` (centres unmarked), `CCOC(=O)CCNC(=O)N1CCCC(N(C)CCc2ccc(OC)c(OC)c2)C1` (centres unmarked) is lower in “hERG current change (%, negative = inhibition) at 10uM” value: 14.7% for the first, -6.37% for the second.

Going from `Cl.Nc1ccc2c(c1)OC1(CCCC1)O2` to `Cn1cc(C(=O)OCC(=O)NC2(C#N)CCCC2)c2ccccc21`, the “hERG current change (%, negative = inhibition) at 10uM” value falls from 45% to 0.00778%.

Going from `CN1C(=O)/C(=C2/C=CC=CN2C)OC1=S` to `Cn1c(=O)n(C)c2cc(C(N)=O)ccc21`, the “hERG current change (%, negative = inhibition) at 10uM” value falls from -4.71% to -10.3%.

First: Cc1cc(NC(=O)/C=C/c2ccccc2Cl)no1
Second: Clc1ccccc1/C=C/c1ccnc2ccccc12
The “hERG current change (%, negative = inhibition) at 10uM” value of the first is higher: 14.1% for the first, 1.03% for the second.

Going from `N#Cc1ccsc1NC(=O)C1CC(=O)N(Cc2ccccc2)C1` (centres unmarked) to `CC1CN(C(=O)NCc2ccccc2)c2cc(Cl)ccc2O1` (centres unmarked), the “hERG current change (%, negative = inhibition) at 10uM” value rises from -18.4% to 10.8%.

First: CCCC(C)NC(=O)C1CC(=O)N(CCc2ccc(F)cc2)C1 (centres unmarked)
Second: O=C(CCn1cnnn1)Nc1ccc(F)cc1
The “hERG current change (%, negative = inhibition) at 10uM” value of the first is higher: 9.07% for the first, 2.01% for the second.

First: CC(=O)c1ccccc1OCCOCCOc1ccccc1C(C)=O
Second: CCOc1ncccc1C(=O)OCC(=O)N1CCc2ccccc21
The “hERG current change (%, negative = inhibition) at 10uM” value of the first is lower: -34.9% for the first, 7.12% for the second.

Going from `O=C(O)CSc1nc2ccccc2s1` to `C=CCNC(=O)c1ccc(CSc2nc3ccccc3s2)cc1`, the “hERG current change (%, negative = inhibition) at 10uM” value falls from 7.83% to 1.1%.

Going from `CC(=N\Nc1ccccc1)/C(=N/O)C(=O)Nc1ccccc1` to `CC(/C=N/NC(=O)c1cccs1)=C\c1ccccc1`, the “hERG current change (%, negative = inhibition) at 10uM” value rises from 4.03% to 5.15%.

Compared with `O=C1c2cnc3nc(SCc4cccc(Cl)c4)nn3c2CC2c3ccccc3CCN12` (centres unmarked), `CN1C(=O)c2ccccc2C(O)c2ccccc21` (centres unmarked) is higher in “hERG current change (%, negative = inhibition) at 10uM” value: -7.81% for the first, 8.44% for the second.

Compared with `CCN(CC)CCn1c2c(c(SCC(=O)Nc3ccc(C(C)C)cc3)nc1=O)CCCC2`, `CCN(CC)CCn1c(=O)n(-c2ccc(Cl)cc2)c(=O)c2c3c(sc21)CN(C)CC3` is higher in “hERG current change (%, negative = inhibition) at 10uM” value: -68.3% for the first, -18.4% for the second.

Going from `Cc1cc(C(=O)O)ccc1-n1c(C)cc(C=C2C(=O)c3ccccc3C2=O)c1C` to `Cc1cc(/C=C2\C(=O)NC(=O)N(c3cccc(F)c3)C2=O)c(C)n1-c1cc(C(=O)O)cc(C(=O)O)c1`, the “hERG current change (%, negative = inhibition) at 10uM” value rises from 11.9% to 21.1%.

Going from `O=S(=O)(Nc1ccc(O)c(Sc2nc3ccccc3s2)c1)c1ccc(F)cc1` to `CCC(=O)Nc1ccc(S(=O)(=O)N2CCc3ccccc32)cc1`, the “hERG current change (%, negative = inhibition) at 10uM” value falls from 8.72% to -6.96%.

Going from `CC(c1ccccc1)n1cncc1C(=O)O` (centres unmarked) to `CCOc1ccc2nc(NC(=O)CSc3ccccc3)sc2c1`, the “hERG current change (%, negative = inhibition) at 10uM” value falls from 18% to 3.44%.

Going from `COC(=O)Oc1ccc(/C=N/NC(=O)CSCc2ccc(Cl)cc2)cc1OC` to `COc1ccc(CC(=O)NC(C)c2nnc(SCC(=O)c3ccc(OC)cc3)n2C)cc1` (centres unmarked), the “hERG current change (%, negative = inhibition) at 10uM” value rises from -15.5% to -3.19%.

Compared with `COc1ccc(C(=O)NCc2nnc(SCC(=O)NO)n2Cc2ccccc2)cc1`, `CCn1c(CC(=O)Nc2ccc(C)cc2)nnc1SCC(=O)Nc1nc(C)cs1` is higher in “hERG current change (%, negative = inhibition) at 10uM” value: -5.01% for the first, 13.9% for the second.

Compared with `CCN1CCN(c2ncnc3sc4c(c23)CCC(C)C4)CC1` (centres unmarked), `CCOc1ccc(N2C(=O)CC(N3CCN(c4ccc(Cl)cc4)CC3)C2=O)cc1` (centres unmarked) is higher in “hERG current change (%, negative = inhibition) at 10uM” value: -37.2% for the first, 18.5% for the second.

Going from `CC(/C=C/c1ccccc1)=N\NC(=O)c1ccc2c(c1)OCCO2` to `Cc1cccc(C(=O)NNC(=O)c2ccccc2Br)c1`, the “hERG current change (%, negative = inhibition) at 10uM” value falls from 3.3% to 3.08%.

Going from `O=C(NCC(O)c1ccc([N+](=O)[O-])cc1)c1cccc(S(=O)(=O)N2CCCC2)c1` (centres unmarked) to `COc1ccc(N(C)S(=O)(=O)c2cccc(C(=O)NCc3ccc(C)cc3)c2)cc1`, the “hERG current change (%, negative = inhibition) at 10uM” value rises from -66.8% to -16.5%.

Compared with `COc1ccc(S(=O)(=O)N(C)C)cc1NCC(=O)Nc1ccc(Br)c(C)c1`, `CCn1nc(C(=O)OCc2cccc(S(=O)(=O)N(C)C)c2)c2ccccc2c1=O` is lower in “hERG current change (%, negative = inhibition) at 10uM” value: -6.82% for the first, -35.1% for the second.

First: CCOC(=O)COc1ccc2c(=O)c(-c3ccccc3)coc2c1
Second: Cc1cc(C)cc(OCC(=O)NNC(=O)CCC(=O)NCc2ccccc2)c1
The “hERG current change (%, negative = inhibition) at 10uM” value of the first is lower: 4.82% for the first, 7.35% for the second.

Compared with `Oc1ccc(Cl)cc1C1=NNC(c2ccc(Cl)cc2)C1` (centres unmarked), `CC1(c2ccc(Cl)cc2)NC(=O)N(CC(=O)NCc2cccs2)C1=O` (centres unmarked) is lower in “hERG current change (%, negative = inhibition) at 10uM” value: 2.89% for the first, -4.38% for the second.

Compared with `O=S1(=O)CC(O)C(N2CCCCC2)C1` (centres unmarked), `CCOC(=O)C1CCCN(C(=O)C2CCN(S(=O)(=O)c3cccs3)CC2)C1` (centres unmarked) is lower in “hERG current change (%, negative = inhibition) at 10uM” value: -0.658% for the first, -18.7% for the second.

Going from `CC(C)(C)C(=O)c1cn(CC(=O)NCc2ccc3c(c2)OCO3)c2ccccc12` to `COc1cc2c(cc1NC(=O)CSCC(=O)O)oc1ccccc12`, the “hERG current change (%, negative = inhibition) at 10uM” value rises from 0.962% to 14.8%.

First: Cc1cc(NC(=O)CC(C)C)c(=O)n(Cc2ccccc2F)c1
Second: CCCNC(=O)c1ccc2c(c1)S(=O)(=O)c1ccccc1C2=O
The “hERG current change (%, negative = inhibition) at 10uM” value of the first is higher: 15.1% for the first, -10.9% for the second.

Compared with `Cc1ccc(C(C)C)c(OCC(=O)OCC(=O)c2c(N)n(C)c(=O)n(C)c2=O)c1`, `COCC(C)n1c(C)cc(C(=O)COC(=O)c2ccc3ncsc3c2)c1C` (centres unmarked) is lower in “hERG current change (%, negative = inhibition) at 10uM” value: 3.36% for the first, -28.7% for the second.

First: O=C(N/N=C/c1cc([N+](=O)[O-])cc([N+](=O)[O-])c1O)C(O)(c1ccccc1)c1ccccc1
Second: O=C(Nc1ccccc1N1CCCC1)c1cccc(-c2cc3ccccc3oc2=O)c1
The “hERG current change (%, negative = inhibition) at 10uM” value of the first is lower: -4.37% for the first, 3.55% for the second.

Compared with `COCC1CCN(C(=O)CCc2nnc(CCCCc3ccccc3)o2)CC1`, `Cc1nn(Cc2ccccc2)c(C)c1C(=O)N1CCN(CC(=O)Nc2ccccc2Cl)CC1` is lower in “hERG current change (%, negative = inhibition) at 10uM” value: -4.75% for the first, -50.3% for the second.

Going from `COc1cccc(C(=O)NCCCNC(=O)c2cccnc2)c1` to `COC(=O)c1cccc(NC(=O)NC(=O)c2ccccc2Cl)c1`, the “hERG current change (%, negative = inhibition) at 10uM” value rises from 23.2% to 47.2%.

Going from `Brc1ccc(CSc2nnc(-c3ccccn3)n2Cc2ccco2)cc1` to `CCOc1ccccc1/C=N/Nc1cc(C)nc2ccc(C)cc12`, the “hERG current change (%, negative = inhibition) at 10uM” value rises from -16.8% to 8.9%.

First: CC1=C(C(=O)Nc2cc(C(=O)NCCCOC(C)C)ccc2C)SCCO1
Second: CCOc1ccc(C(=O)NCC(=O)Nc2cc(C)ccn2)cc1OCC
The “hERG current change (%, negative = inhibition) at 10uM” value of the first is higher: 17.9% for the first, -8.21% for the second.

Going from `CCOc1cc(C(=O)NCC(C)CN(C)C)cc(OCC)c1OCC` (centres unmarked) to `CCOCCCNC(=O)C(C)NS(=O)(=O)c1ccc(C)cc1` (centres unmarked), the “hERG current change (%, negative = inhibition) at 10uM” value falls from 14.9% to 4.29%.

Going from `COc1cccc(NS(=O)(=O)c2ccc3c(c2)CCN3C(C)=O)c1` to `Cl.Cn1ccc2cc3c(cc21)CCN3C(=O)Nc1cccnc1.O`, the “hERG current change (%, negative = inhibition) at 10uM” value rises from -8.93% to -1.83%.

First: CSc1ncccc1C(=O)Nc1ccncc1
Second: Cc1ccc(C(=O)CN(CCC(=O)O)C(=O)c2ccncc2)cc1
The “hERG current change (%, negative = inhibition) at 10uM” value of the first is higher: 16% for the first, 14.4% for the second.

First: Cc1nnc(NC(=O)c2cc3n(n2)C(C(F)(F)F)CC(C2CC2)N3)s1 (centres unmarked)
Second: O=C(NC1CCCC1)c1ccc(COCC(F)(F)F)o1
The “hERG current change (%, negative = inhibition) at 10uM” value of the first is higher: 18.9% for the first, 8.1% for the second.

Going from `CCCn1cnc2sc(CC)cc2c1=O` to `Cc1cc(Cl)ccc1OCC(=O)NCCOC(=O)Nc1sc(=S)n(C)c1C`, the “hERG current change (%, negative = inhibition) at 10uM” value falls from 14.6% to 3.5%.

Compared with `NC(=S)Nc1cc(Cl)cc(Cl)c1`, `Cc1ccc(Nc2cc(C)c(O)c(C)c2)cc1` is lower in “hERG current change (%, negative = inhibition) at 10uM” value: 17.1% for the first, 0.616% for the second.

Going from `Cc1ccc(C(=O)NC(=S)Nc2ccc(-c3ccc(CO)o3)cc2)cc1` to `Cc1ccc2nc(/C=C/c3cccc(F)c3)ccc2c1`, the “hERG current change (%, negative = inhibition) at 10uM” value rises from 15.3% to 28.1%.

First: Cc1nc(CN2CCOCC2)cc(=O)[nH]1
Second: COC(=O)c1ccc(CN2CCN(Cc3ccc(C(=O)OC)o3)CC2)o1
The “hERG current change (%, negative = inhibition) at 10uM” value of the first is lower: -10.5% for the first, 19.1% for the second.

Compared with `CC(C)NC(=O)C1CCN(C2CCN(Cc3nc4ccccc4s3)CC2)CC1`, `CNC(=O)c1[nH]cnc1C(=O)N[C@@H](CC(C)C)C(=O)OCc1ccccc1` is higher in “hERG current change (%, negative = inhibition) at 10uM” value: -65.2% for the first, -58.2% for the second.

Going from `O=C(CSc1nnc(Nc2ccccc2)s1)NCCN1C(=O)CSC1=O` to `CCOC(=O)/C(C#N)=N/Nc1ccc(S(=O)(=O)Nc2cc(OC)nc(OC)n2)cc1`, the “hERG current change (%, negative = inhibition) at 10uM” value falls from 15.6% to -13.1%.
